Among the data in article PMC12136788 are binding signal values, retold here.

The list shows a part of the results.

To fix the notation:
B1: chr6:21597833:21597834:+_ENSG00000124766_ENST00000244745|hu_hu|FALSE|FALSE (ssRNA)
RNA: GGGAGUUCUACAGUCCGACGAUCAAGUUAAAACUCUAGCCCUUCAGUGAAGGAGACGUAAAAUGGCGUGGGUAACAACAACUACCAAAAAAAAAAAAAAAAAAAGAAAAAAAAAAGAAAAAAAGGAAAAGGAAGGAAUAAAGACAACAGAGGAUUGAGCAUCA
B2: chr16:24801560:24801561:+_ENSG00000090905_ENST00000315183|hu_hu|FALSE|FALSE (ssRNA)
RNA: GGGAGUUCUACAGUCCGACGAUCCAUUAGAGUUGCAUUCACAGUGUCACCAUUAGCUUGGCCAUUAGGGCCUGAACAUUUGUCUCCAGAGUAAUUAGAACCAUAGGCACCCCAUGUAGUACCAUAAGAGCCUCCACUUUUUGACAACAGAGGAUUGAGCAUCA
B3: 128202819_128204660_1172_CDS_ENSG00000179348_ENST00000341105|human|control|control (ssRNA)
RNA: GGGAGUUCUACAGUCCGACGAUCGGCCCCACAGUUGACACACUCCCGGCCUUCUGAACAGGAACGAGCCUUGCUGCGCUGCUUAGGGGUGAAGCUGGAGGCCGGUCCCCCCAGGAAGCCUCCGGGGUGGAAGAGUCCGCUGCUCAACAGAGGAUUGAGCAUCA
B4: chr16:8858281:8858282:+_ENSMUSG00000022507_ENSMUST00000023150|mus_hu|motif|central (ssRNA)
RNA: GGGAGUUCUACAGUCCGACGAUCGACAAAUUCAUUAGGUGCAUUUGAAAGUAAACGCAAUGGAAAAAAGUAACAAAUGCGGAAGUUUUCUAAAAGUUUAAUGAAGCCAAUAAGGCAUAUAAAUUGUGUUCUGGCAGACAUUAACAACAGAGGAUUGAGCAUCA
B5: chr8:26227902:26227903:+_ENSG00000221914_ENST00000315985|hu_mus|FALSE|FALSE (ssRNA)
RNA: GGGAGUUCUACAGUCCGACGAUCGAGAAUGCCAGCCUAAUUCACUUUGUCUUGAAAUAUAUACAGAUUGUUUGUAGUUGCUACAGCAAUGAUGUUUUCCUUGGGAUGCCAGGCUGUAUGAAGGAUUUUCUUGUUGAAGUCUAGCAACAGAGGAUUGAGCAUCA
B6: chr7:19721593:19721594:+_ENSMUSG00000050428_ENSMUST00000053109|mus_hu|FALSE|FALSE (ssRNA)
RNA: GGGAGUUCUACAGUCCGACGAUCACUGGGCAGGCCGCUGUCUGGUGCACGGGGCUCCCGGCCGUUGGAGAUGCGGAAGGCGAUGCGCACCUCCCCAGGGCCUGGCCCGGGCCGCUCUUCCUUGCGGAGGCCCUUGGUGGGAGGCAACAGAGGAUUGAGCAUCA
B7: chr12:114310842:114310843:+_ENSMUSG00000021143_ENSMUST00000084891|mus_mus|motif|central (ssRNA)
RNA: GGGAGUUCUACAGUCCGACGAUCUGUAAGGGAGGUGGCCUUUGUAGUCAGACCAGCAUGCUGGAGCCUUCACGGGCGGCAAACAAAUCUCUCUCUCUCUCUCUCUCACACACACACACACACACACACACACACACACACACACAACAGAGGAUUGAGCAUCA
B8: 34911504_34911624_172_CDS_ENSG00000159131_ENST00000381815|human|control|control (ssRNA)
RNA: GGGAGUUCUACAGUCCGACGAUCAGUGCCUGCGUUUCCUGGGGCAACCAACACUUGUUUGACAUGAUGAGACUGUGCAAGUUUCCAGGCCAGCGUAUGUUCCCUUCCUCCACUGCCAAUUAUAAGUACUCGGGCUGCCAUUGUCAACAGAGGAUUGAGCAUCA
B9: chr7:56126341:56126342:+_ENSG00000146731_ENST00000540286|hu_mus|hu_hu_hu_mus_True|1_8 (ssRNA)
RNA: GGGAGUUCUACAGUCCGACGAUCCAUGUUUCUCCUCUUGGCUCUGCGCAGAGCUACGAUCCCUUCUUUCGCAAGGGCAUCUAAGGAAAAGGGGUCAAUCCCCUUUUGAUUAAUAACGACAAAUCCUUUAUCUGAAUCGCCACACAACAGAGGAUUGAGCAUCA
B10: chr1:60041781:60041782:+_ENSMUSG00000041040_ENSMUST00000036540|mus_hu|mus_mus_mus_hu_False|78_98 (ssRNA)
RNA: GGGAGUUCUACAGUCCGACGAUCAAGUUUACAAUAGCUCAACUUUAGCAGUAGUGGAAUGGCAAGUUUUAUUUUCCUUCACAAAAGAAAAUCUUUAUAACCCAGUCCUAGUCUUGGACAUAGUGAAAGCUAUAAAUUCUGACUCAACAGAGGAUUGAGCAUCA
B11: chr5:37680062:37680063:+_ENSMUSG00000029121_ENSMUST00000031004|mus_hu|mus_mus_mus_hu_False|88_88 (ssRNA)
RNA: GGGAGUUCUACAGUCCGACGAUCUUUGGGUGUAGCUGGUACCUCGUACACAGGCCCGUCAUACAUGCCCCUGGAAACCCCUUGCAAUCCAAAAACCUUAUUCCUGAUUUUGACGCGCUGGUACAGGUGCUCCGGGAACGCCUUCAACAGAGGAUUGAGCAUCA
B12: chr1:225611761:225611762:-_ENSG00000143815_ENST00000272163|hu_hu|motif|central (ssRNA)
RNA: GGGAGUUCUACAGUCCGACGAUCCCAGGCCAUCGACCUCUUACCACUUCACCAUCGGCAAAUUUCCUACUUGGCAUUUUCGGUAAUUAACCUGCGCCAGGUUCCGGCGGUGACACGGACGGCUCCCGGAGAAUAGUCGCACAGCAACAGAGGAUUGAGCAUCA
B13: chr15:99827826:99827827:+_ENSMUSG00000023025_ENSMUST00000100206|mus_hu|motif|central (ssRNA)
RNA: GGGAGUUCUACAGUCCGACGAUCAUUCAUAGCAGCAGCAUUUGUUUUAUAAGAUCCUGGCGAAUUAAAGCCAUUCACAAAACGGCCAUUGGGAAAGGGAGCCAGUGGUGUUUCAAAGUAAGGUGUAGGAUUUGGAGACCAAGACAACAGAGGAUUGAGCAUCA
B14: chr4:117809766:117809767:-_ENSMUSG00000033326_ENSMUST00000106406|mus_mus|FALSE|FALSE (ssRNA)
RNA: GGGAGUUCUACAGUCCGACGAUCAUUGGGCCCAGGCAAACAAAUUCAGGAACCUGUUUAACCCCUUCAAUGUUGCCCUCUAGUCCCAUCCCACCCCCACCCUCAACCAGCCCCACCCCACCCCUGACCAAGGGCGUAGCUAUACAACAGAGGAUUGAGCAUCA
B15: chr12:112777701:112777702:+_ENSMUSG00000021282_ENSMUST00000166123|mus_mus|FALSE|FALSE (ssRNA)
RNA: GGGAGUUCUACAGUCCGACGAUCCGGUCUCUGACAUGAAAAAAUUUUCGCCACUGAGGCUGUAAGCUUCUUGCUUGUAUGCUAUGUUUCCCCAAUACAGGUACCAAUGGCUGCGCAACAGCUCGUUUUCGUCAAAUAAAGACACAACAGAGGAUUGAGCAUCA
B16: chr11:74490848:74490849:-_ENSMUSG00000020745_ENSMUST00000021091|mus_mus|FALSE|FALSE (ssRNA)
RNA: GGGAGUUCUACAGUCCGACGAUCACAGAUAGCAGGAAGAAAAACAGUAAUUAAUAAUCCAACAUAAAAUGACACUGUCAACUAUUCAGUUUAGUGCCCUAGUUCAAUUUAUUUAACUUCUGCCCUUGUAGGCCUGGUGUGACCCAACAGAGGAUUGAGCAUCA
B17: 84151872_84151992_5108_CDS_ENSMUSG00000020532_ENSMUST00000020843|mouse|control|control (ssRNA)
RNA: GGGAGUUCUACAGUCCGACGAUCGUAGAUGCGUGGGAUGCCUUCUGCUCUGGCAAGUUCAGAAGCUCUGAGAAACAGCAAAUCCUCCUGAGGCCCAAAGGAACCGAUCCGAUAUGUAAUGUCAUUGCCGAUGACAAUGAUAUCCAACAGAGGAUUGAGCAUCA
B18: 61660918_61661038_860_3pUTR_ENSG00000136485_ENST00000310827|human|control|control (ssRNA)
RNA: GGGAGUUCUACAGUCCGACGAUCUAGGGUCCUGCUUGUUCCAGCAGAGGCGAAGCAGUGGGUGAUGCUGUGGGUCUUCGUAAAUGAUGGUGCUGUGUUCUAGAUGGCGGAGGUCAAACAUCCGCACCGAGCCAUCAGCACCCACAACAGAGGAUUGAGCAUCA
B19: 21897295_21898717_948_CDS_ENSG00000141447_ENST00000319481|human|control|control (ssRNA)
RNA: GGGAGUUCUACAGUCCGACGAUCCCUAUACCAUGAAAGGACUCCAUGCUCUAACACUACCCAGAAUAAUCUCCAGCCAAAAAAUCUUGAACUCUUCCAGAGAGGGCCCUCAUAUCGUUUCAAUGCUUUGUAGAUGACCUUAUUCAACAGAGGAUUGAGCAUCA
B20: chr14:62154062:62154063:-_ENSMUSG00000021930_ENSMUST00000100496|mus_mus|FALSE|FALSE (ssRNA)
RNA: GGGAGUUCUACAGUCCGACGAUCUUUUUUCAAAACCAGGUGGAGGAGUAUGAUAAAAUUCACUGAACUGGCAAUCCAGAAUUGCACUGUCGUCAACACUACAUCUCCCUCCUGAGGAAGGCUGUUUGCUGGCAGCCUGUUUUUCAACAGAGGAUUGAGCAUCA
B21: chr5:122268631:122268632:-_ENSMUSG00000042594_ENSMUST00000136960|mus_hu|FALSE|FALSE (ssRNA)
RNA: GGGAGUUCUACAGUCCGACGAUCAACCAGCUGAGCUGCUUUCACUCUGGAGAUGGGGCCGUGGAACCAGGGGUAGCAGGACAGGAAAUGGUCCGUCUUCUGGCAGGCCGGGUCCAGCAGCCCCCCAGGAGAAGCACCUUGGUUCAACAGAGGAUUGAGCAUCA
B22: 78798003_78798123_2598_CDS_ENSMUSG00000033088_ENSMUST00000109689|mouse|control|control (ssRNA)
RNA: GGGAGUUCUACAGUCCGACGAUCGCAGGGUGGCUGAGAGGACUCCAAAGAGGUCUGGGGAGCCCCUCGAGGUGCUGCGUGAAGAGGCGAUGAAGUCCUAGAGGCACUGGAAUGGCCAGGGUUAUGAGAGGAGGAGGAGGUGGUCAACAGAGGAUUGAGCAUCA

This assay concerns the target T1, UNK ZnF1-3 (human, UniProt Q9C0B0 31-174).
T1 sequence: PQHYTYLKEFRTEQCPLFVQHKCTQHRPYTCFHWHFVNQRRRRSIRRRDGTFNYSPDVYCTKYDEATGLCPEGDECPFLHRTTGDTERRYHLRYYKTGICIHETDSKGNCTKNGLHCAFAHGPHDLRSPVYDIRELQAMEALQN
Nature of the assay: nsRBNS (natural sequence RNA bind-n-seq); RBNS binding buffer (assumed for nsRBNS): 25 mM Tris pH 7.5, 150 mM KCl, 3 mM MgCl2, 0.01% Triton X-100, 500 ug/ml BSA, 20 U/ml SUPERase-In, 4 C; UNK is unkempt and MSI1 is Musashi-1; names of the RNAs are library labels; protein concentration not given here; high values mean tight binding.
As for B1, the binding signal is 1.61 enrichment R.

Molecule B2 yielded a binding signal of 1.14 enrichment R.

Take B3: the binding signal came out at 0.912 enrichment R.

Molecule B4 displayed a binding signal of 1.22 enrichment R.

For B5, the binding signal was 1.23 enrichment R.

In the case of B6, the binding signal amounted to 0.916 enrichment R.

In turn, B7 came in with a binding signal of 1.59 enrichment R.

B8 showed a binding signal of 1.05 enrichment R.

Regarding B9, the binding signal came out at 0.992 enrichment R.

For the molecule B10, the binding signal was determined as 0.564 enrichment R.

Consider B11, for which the binding signal was 0.73 enrichment R.

Consider B12, for which the binding signal worked out at 0.798 enrichment R.

In turn, B13 showed a binding signal of 2.1 enrichment R.

As for B14, the binding signal amounted to 1.18 enrichment R.

As to B15, the binding signal came to 1.23 enrichment R.

B16 returned a binding signal of 1.15 enrichment R.

On to B17, for which the binding signal came to 0.83 enrichment R.

In turn, B18 registered a binding signal of 0.428 enrichment R.

Take B19: the binding signal was 1.3 enrichment R.

In turn, B20 gave a binding signal of 0.605 enrichment R.

The molecule B21 registered a binding signal of 0.8 enrichment R.

B22 yielded a binding signal of 2 enrichment R.
